From publication PMC12820563
The other results are listed elsewhere or left out. The list includes weakly bound sequences.

target: T1, MBP-FoxP3dN (UniProt Q99JB6); assay: PD-seq (MBP pull-down with sequencing); details: 20 mM Tris-HCl pH 7.5, 100 mM NaCl, 1.5 mM MgCl2, 0.4 uM protein, 0.1 uM dsDNA library, 30 min, room temperature, amylose pull-down; high values mean tight binding; double strand, one strand shown
T1 sequence: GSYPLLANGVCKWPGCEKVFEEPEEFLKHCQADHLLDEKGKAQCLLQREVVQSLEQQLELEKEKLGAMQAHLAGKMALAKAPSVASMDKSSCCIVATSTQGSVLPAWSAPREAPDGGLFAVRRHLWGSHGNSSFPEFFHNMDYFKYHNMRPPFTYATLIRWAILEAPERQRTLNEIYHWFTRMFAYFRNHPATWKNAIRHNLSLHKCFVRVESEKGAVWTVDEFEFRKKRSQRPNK

Row | Sequence | binding signal (RPM ratio (pull-down/input))
1 | GATGATTGTTCTCCCAGCTGATGAATTCTACTGTTCGAGTAAACAAATTTTCCTAATCTTTCTGTTCAAGCGCCATCTAC | 0.567
2 | GATGATTGTTCTCCCAGCTGATGAATTCAATTAGTCGAGTAAACAAATTTTCCTAATCTTTCTGTTCAAGCGCCATCTAC | 1.25
3 | GATGATTGTTCTCCCAGCTGATGAATTGTCACAGTCGAGTAAACAAATTTTCCTAATCTTTCTGTTCAAGCGCCATCTAC | 0.37
4 | GATGATTGTTCTCCCAGCTGATGAATTTATTTCATCGAGTAAACAAATTTTCCTAATCTTTCTGTTCAAGCGCCATCTAC | 1.45
5 | GATGATTGTTCTCCCAGCTGATGAATTGGTCTTTTCGAGTAAACAAATTTTCCTAATCTTTCTGTTCAAGCGCCATCTAC | 0.439
6 | GATGATTGTTCTCCCAGCTGATGAATTCGCTTATTCGAGTAAACAAATTTTCCTAATCTTTCTGTTCAAGCGCCATCTAC | 2.49
7 | GATGATTGTTCTCCCAGCTGATGAATTCGTTTATTCGAGTAAACAAATTTTCCTAATCTTTCTGTTCAAGCGCCATCTAC | 4.83
8 | GATGATTGTTCTCCCAGCTGATGAATTTAGGCTCTCGAGTAAACAAATTTTCCTAATCTTTCTGTTCAAGCGCCATCTAC | 0.686
9 | GATGATTGTTCTCCCAGCTGATGAATTAGTTTGATCGAGTAAACAAATTTTCCTAATCTTTCTGTTCAAGCGCCATCTAC | 2
10 | GATGATTGTTCTCCCAGCTGATGAATTGCAATTGTCGAGTAAACAAATTTTCCTAATCTTTCTGTTCAAGCGCCATCTAC | 2.73
11 | GATGATTGTTCTCCCAGCTGATGAATTTGTTCAGTCGAGTAAACAAATTTTCCTAATCTTTCTGTTCAAGCGCCATCTAC | 1.74
12 | GATGATTGTTCTCCCAGCTGATGAATTAGAGCATTCGAGTAAACAAATTTTCCTAATCTTTCTGTTCAAGCGCCATCTAC | 5.15
13 | GATGATTGTTCTCCCAGCTGATGAATTCACGATATCGAGTAAACAAATTTTCCTAATCTTTCTGTTCAAGCGCCATCTAC | 0.437
14 | GATGATTGTTCTCCCAGCTGATGAATTGGCGCCATCGAGTAAACAAATTTTCCTAATCTTTCTGTTCAAGCGCCATCTAC | 2.41
15 | GATGATTGTTCTCCCAGCTGATGAATTCGACGATTCGAGTAAACAAATTTTCCTAATCTTTCTGTTCAAGCGCCATCTAC | 0.311
16 | GATGATTGTTCTCCCAGCTGATGAATTAGTGTTTTCGAGTAAACAAATTTTCCTAATCTTTCTGTTCAAGCGCCATCTAC | 2.82
17 | GATGATTGTTCTCCCAGCTGATGAATTTACTACATCGAGTAAACAAATTTTCCTAATCTTTCTGTTCAAGCGCCATCTAC | 0.69
18 | GATGATTGTTCTCCCAGCTGATGAATTAATAAAGTCGAGTAAACAAATTTTCCTAATCTTTCTGTTCAAGCGCCATCTAC | 0.23
19 | GATGATTGTTCTCCCAGCTGATGAATTCCACCGATCGAGTAAACAAATTTTCCTAATCTTTCTGTTCAAGCGCCATCTAC | 0.315
20 | GATGATTGTTCTCCCAGCTGATGAATTTTTTTCCTCGAGTAAACAAATTTTCCTAATCTTTCTGTTCAAGCGCCATCTAC | 0.246
21 | GATGATTGTTCTCCCAGCTGATGAATTTGACGGGTCGAGTAAACAAATTTTCCTAATCTTTCTGTTCAAGCGCCATCTAC | 0.471

Row | Sequence | binding signal (RPM ratio (pull-down/input))
22 | GATGATTGTTCTCCCAGCTGATGAATTATCACAATCGAGTAAACAAATTTTCCTAATCTTTCTGTTCAAGCGCCATCTAC | 0.504
23 | GATGATTGTTCTCCCAGCTGATGAATTGAGGTCCTCGAGTAAACAAATTTTCCTAATCTTTCTGTTCAAGCGCCATCTAC | 0.404
24 | GATGATTGTTCTCCCAGCTGATGAATTTTGGGCCTCGAGTAAACAAATTTTCCTAATCTTTCTGTTCAAGCGCCATCTAC | 0.471
25 | GATGATTGTTCTCCCAGCTGATGAATTGCCTTTCTCGAGTAAACAAATTTTCCTAATCTTTCTGTTCAAGCGCCATCTAC | 0.937
26 | GATGATTGTTCTCCCAGCTGATGAATTGCTTTAGTCGAGTAAACAAATTTTCCTAATCTTTCTGTTCAAGCGCCATCTAC | 0.719
27 | GATGATTGTTCTCCCAGCTGATGAATTTTGTAGGTCGAGTAAACAAATTTTCCTAATCTTTCTGTTCAAGCGCCATCTAC | 1.8
28 | GATGATTGTTCTCCCAGCTGATGAATTGTTCAGGTCGAGTAAACAAATTTTCCTAATCTTTCTGTTCAAGCGCCATCTAC | 0.281
29 | GATGATTGTTCTCCCAGCTGATGAATTCTCCAATTCGAGTAAACAAATTTTCCTAATCTTTCTGTTCAAGCGCCATCTAC | 0.242
30 | GATGATTGTTCTCCCAGCTGATGAATTTTCAATCTCGAGTAAACAAATTTTCCTAATCTTTCTGTTCAAGCGCCATCTAC | 0.254
31 | GATGATTGTTCTCCCAGCTGATGAATTTCTACCTTCGAGTAAACAAATTTTCCTAATCTTTCTGTTCAAGCGCCATCTAC | 0.232
32 | GATGATTGTTCTCCCAGCTGATGAATTGAGCTCCTCGAGTAAACAAATTTTCCTAATCTTTCTGTTCAAGCGCCATCTAC | 0.637
33 | GATGATTGTTCTCCCAGCTGATGAATTAAGAGCCTCGAGTAAACAAATTTTCCTAATCTTTCTGTTCAAGCGCCATCTAC | 0.471
34 | GATGATTGTTCTCCCAGCTGATGAATTCACTACATCGAGTAAACAAATTTTCCTAATCTTTCTGTTCAAGCGCCATCTAC | 0.507
35 | GATGATTGTTCTCCCAGCTGATGAATTCATCTGATCGAGTAAACAAATTTTCCTAATCTTTCTGTTCAAGCGCCATCTAC | 0.248
36 | GATGATTGTTCTCCCAGCTGATGAATTCCACCGGTCGAGTAAACAAATTTTCCTAATCTTTCTGTTCAAGCGCCATCTAC | 0.2
37 | GATGATTGTTCTCCCAGCTGATGAATTATTCTACTCGAGTAAACAAATTTTCCTAATCTTTCTGTTCAAGCGCCATCTAC | 0.361
38 | GATGATTGTTCTCCCAGCTGATGAATTCTCAGTATCGAGTAAACAAATTTTCCTAATCTTTCTGTTCAAGCGCCATCTAC | 0.375
39 | GATGATTGTTCTCCCAGCTGATGAATTCATATAATCGAGTAAACAAATTTTCCTAATCTTTCTGTTCAAGCGCCATCTAC | 0.409
40 | GATGATTGTTCTCCCAGCTGATGAATTCGATGGCTCGAGTAAACAAATTTTCCTAATCTTTCTGTTCAAGCGCCATCTAC | 0.944
41 | GATGATTGTTCTCCCAGCTGATGAATTTAAGAGGTCGAGTAAACAAATTTTCCTAATCTTTCTGTTCAAGCGCCATCTAC | 0.231
42 | GATGATTGTTCTCCCAGCTGATGAATTCATTCAATCGAGTAAACAAATTTTCCTAATCTTTCTGTTCAAGCGCCATCTAC | 0.229

Row | Sequence | binding signal (RPM ratio (pull-down/input))
43 | GATGATTGTTCTCCCAGCTGATGAATTTTCGTTCTCGAGTAAACAAATTTTCCTAATCTTTCTGTTCAAGCGCCATCTAC | 0.417
44 | GATGATTGTTCTCCCAGCTGATGAATTAGTGCGGTCGAGTAAACAAATTTTCCTAATCTTTCTGTTCAAGCGCCATCTAC | 0.534
45 | GATGATTGTTCTCCCAGCTGATGAATTGTGAATCTCGAGTAAACAAATTTTCCTAATCTTTCTGTTCAAGCGCCATCTAC | 2.72
46 | GATGATTGTTCTCCCAGCTGATGAATTCGCTGTCTCGAGTAAACAAATTTTCCTAATCTTTCTGTTCAAGCGCCATCTAC | 1.63
47 | GATGATTGTTCTCCCAGCTGATGAATTACTCAGCTCGAGTAAACAAATTTTCCTAATCTTTCTGTTCAAGCGCCATCTAC | 0.252
48 | GATGATTGTTCTCCCAGCTGATGAATTATTAGAATCGAGTAAACAAATTTTCCTAATCTTTCTGTTCAAGCGCCATCTAC | 0.298
49 | GATGATTGTTCTCCCAGCTGATGAATTAACAGAATCGAGTAAACAAATTTTCCTAATCTTTCTGTTCAAGCGCCATCTAC | 0.243
50 | GATGATTGTTCTCCCAGCTGATGAATTCGTCTTCTCGAGTAAACAAATTTTCCTAATCTTTCTGTTCAAGCGCCATCTAC | 0.573
51 | GATGATTGTTCTCCCAGCTGATGAATTTGAGGGATCGAGTAAACAAATTTTCCTAATCTTTCTGTTCAAGCGCCATCTAC | 0.363
52 | GATGATTGTTCTCCCAGCTGATGAATTCTACGCCTCGAGTAAACAAATTTTCCTAATCTTTCTGTTCAAGCGCCATCTAC | 0.474
53 | GATGATTGTTCTCCCAGCTGATGAATTTACCTCTTCGAGTAAACAAATTTTCCTAATCTTTCTGTTCAAGCGCCATCTAC | 0.488
54 | GATGATTGTTCTCCCAGCTGATGAATTCTCCTAATCGAGTAAACAAATTTTCCTAATCTTTCTGTTCAAGCGCCATCTAC | 0.206
55 | GATGATTGTTCTCCCAGCTGATGAATTACATTAATCGAGTAAACAAATTTTCCTAATCTTTCTGTTCAAGCGCCATCTAC | 0.425
56 | GATGATTGTTCTCCCAGCTGATGAATTTTCGTATTCGAGTAAACAAATTTTCCTAATCTTTCTGTTCAAGCGCCATCTAC | 1.22
57 | GATGATTGTTCTCCCAGCTGATGAATTCCCTTACTCGAGTAAACAAATTTTCCTAATCTTTCTGTTCAAGCGCCATCTAC | 0.294
58 | GATGATTGTTCTCCCAGCTGATGAATTATCTTGTTCGAGTAAACAAATTTTCCTAATCTTTCTGTTCAAGCGCCATCTAC | 0.54
59 | GATGATTGTTCTCCCAGCTGATGAATTCCCATTTTCGAGTAAACAAATTTTCCTAATCTTTCTGTTCAAGCGCCATCTAC | 0.336
60 | GATGATTGTTCTCCCAGCTGATGAATTTCAAATTTCGAGTAAACAAATTTTCCTAATCTTTCTGTTCAAGCGCCATCTAC | 0.227
61 | GATGATTGTTCTCCCAGCTGATGAATTCGCCTATTCGAGTAAACAAATTTTCCTAATCTTTCTGTTCAAGCGCCATCTAC | 0.603
62 | GATGATTGTTCTCCCAGCTGATGAATTCTTCGAGTCGAGTAAACAAATTTTCCTAATCTTTCTGTTCAAGCGCCATCTAC | 0.232
63 | GATGATTGTTCTCCCAGCTGATGAATTTCGAAGGTCGAGTAAACAAATTTTCCTAATCTTTCTGTTCAAGCGCCATCTAC | 0.237
